# Data published in the supplement of paper PMC8047034.
# Where a name gives a salt, the structure may show the parent alone. The list shows a part of the results. Single values are uncertain, as repeats are few or missing.
# Key:
# OVCAR4 = test: log2 surviving fraction (library drug vs vehicle, or drug + carboplatin vs carboplatin alone; relative to plate median); ovarian cancer lines: OVCAR4 is platinum-sensitive and Ov4Carbo platinum-resistant; higher = more cell survival; conditions: library drug concentration 10 µM, 7 days
# Ov4Carbo = test: as above; conditions: library drug concentration 10 µM, 7 days
SMILES,log2 surviving fraction (OVCAR4; carboplatin co-treatment 0 µM),log2 surviving fraction (OVCAR4; carboplatin co-treatment 5 µM),log2 surviving fraction (Ov4Carbo; carboplatin co-treatment 0 µM),log2 surviving fraction (Ov4Carbo; carboplatin co-treatment 5 µM)
COc1ccc(CC2c3cc(OC)c(OC)cc3CC[N+]2(C)CCC(=O)OCCCCCOC(=O)CC[N+]2(C)CCc3cc(OC)c(OC)cc3C2Cc2ccc(OC)c(OC)c2)cc1OC (stereo not given) [Atracurium besylate],-0.132,-0.724,-0.852,-0.395
C[C@H]1C[C@H]2[C@@H]3CCC4=CC(=O)C=C[C@]4(C)[C@H]3C(=O)C[C@]2(C)[C@@]1(O)C(=O)CO [Betapar (Meprednisone)],0.65,0.866,1.08,0.519
CC(C)NCC(O)c1ccccc1Cl (stereo not given) [Clorprenaline HCL],0.231,0.191,0.478,1.08
Cc1cc(O)ccc1Cl [Chlorocresol],0.622,0.784,-0.136,0.289
COC(=O)C1=CCCN(C)C1 [Arecoline],-0.134,-0.0814,-0.126,0.146
Clc1ccccc1CN1CCc2sccc2C1 [Ticlopidine HCl],0.157,0.856,0.797,-0.173
Nc1[nH]cnc2ncnc1-2 [Adenine sulfate],1.27,2,1.18,0.411
CN(Cc1cc(Br)cc(Br)c1N)C1CCCCC1 [Bromhexine HCl],0.0511,-0.733,0.2,-0.498
CO[C@@]1(NC(=O)C(C(=O)O)c2ccc(O)cc2)C(=O)N2C(C(=O)O)=C(CSc3nnnn3C)CO[C@@H]21 (stereo not given in full) [Moxalactam Disodium],-0.173,-0.177,-0.408,-0.43
CC(C)OC(=O)OCOP(=O)(CO[C@H](C)Cn1cnc2c(N)ncnc21)OCOC(=O)OC(C)C [Tenofovir Disoproxil Fumarate],-0.566,-2.92,0.0568,-0.364
Nc1ccn([C@@H]2O[C@H](CO)[C@@H](O)[C@H]2O)c(=O)n1 [Cytidine],0.818,-0.0982,-0.209,0.608
CC(=O)S[C@@H]1CC2=CC(=O)CC[C@]2(C)[C@H]2CC[C@@]3(C)[C@@H](CC[C@@]34CCC(=O)O4)[C@H]12 [Spironolactone],-2.18,-2.07,-1.24,-2.03
CC(=O)[C@H]1CC[C@H]2[C@@H]3C=CC4=CC(=O)CC[C@@]4(C)[C@@H]3CC[C@]12C [Dydrogesterone],0.626,-0.486,0.456,0.865
O=C(O)c1cccnc1Nc1cccc(C(F)(F)F)c1 [Niflumic acid],1.04,0.417,0.424,-0.184
O=C(O)Cc1ccccc1Nc1c(Cl)cccc1Cl [Diclofenac Potassium],1.05,0.502,1.15,0.331
Cc1onc(-c2c(Cl)cccc2Cl)c1C(=O)N[C@@H]1C(=O)N2[C@@H]1SC(C)(C)[C@@H]2C(=O)O [Dicloxacillin Sodium],0.672,0.739,1.72,1.1
COc1ccc2c(c1OC)C(=O)O[C@@H]2[C@H]1c2c(cc3c(c2OC)OCO3)CCN1C [Noscapine HCl],-1.43,-0.16,0.0651,0.0695
COc1ccc(C2CNC(=O)C2)cc1OC1CCCC1 (stereo not given) [Rolipram],0.0249,1.3,0.982,0.551
CC(C)[C@H](N)C(=O)OCCOCn1cnc2c(=O)nc(N)[nH]c21 [Valaciclovir HCl],0.0606,0.407,0.175,-0.344
"CC(C)(C)C(=O)OCOP(=O)(COCCn1cnc2c(N)ncnc21)OCOC(=O)C(C)(C)C [Adefovir Dipivoxil (Preveon, Hepsera)]",-7.33,-4.64,-5.14,-4.37
CN1C(=O)COc2c(C(=O)NC3CN4CCC3CC4)cc(Cl)cc21 (stereo not given),-0.355,-0.769,-0.505,0.553
C[N+]1(C)CCCC(OC(=O)C(O)(c2ccccc2)c2ccccc2)C1 (stereo not given) [Mepenzolate Bromide],1,0.0772,0.369,0.935
Cc1cc2c(cc1S(N)(=O)=O)S(=O)(=O)CCC2 [Meticrane],0.348,0.546,0.23,-0.667
CCC(=O)O[C@]1(C(=O)CCl)[C@@H](C)C[C@H]2[C@@H]3CCC4=CC(=O)C=C[C@]4(C)[C@@]3(F)[C@@H](O)C[C@@]21C [Clobetasol propionate],-1.59,-1.1,0.392,-1.37
COc1cc2c(cc1OC)C(=O)C(CC1CCN(Cc3ccccc3)CC1)C2 (stereo not given) [Donepezil HCl (Aricept)],-0.236,0.398,-0.364,-0.0186
CN(c1nccc(=O)[nH]1)C1CCN(c2nc3ccccc3n2Cc2ccc(F)cc2)CC1 [Mizolastine (Mizollen)],1.29,1.02,0.389,0.911
CC1(C)S[C@@H]2[C@H](NC(=O)[C@H](N)c3ccccc3)C(=O)N2[C@H]1C(=O)O [Ampicillin sodium],0.308,-0.25,-1.15,-0.706
NC(N)=Nc1nc(CSCC/C(N)=N/S(N)(=O)=O)cs1 [Famotidine (Pepcid)],0.486,0.308,1.71,1.13

SMILES,log2 surviving fraction (OVCAR4; carboplatin co-treatment 0 µM),log2 surviving fraction (OVCAR4; carboplatin co-treatment 5 µM),log2 surviving fraction (Ov4Carbo; carboplatin co-treatment 0 µM),log2 surviving fraction (Ov4Carbo; carboplatin co-treatment 5 µM)
COc1cc2nc(N3CCN(C(=O)C4COc5ccccc5O4)CC3)nc(N)c2cc1OC (stereo not given) [Doxazosin mesylate],0.868,0.709,-1.41,-0.735
CCN1CCC[C@H]1CNC(=O)c1cc(S(N)(=O)=O)ccc1OC [Levosulpiride (Levogastrol)],0.262,0.00763,0.17,-0.0663
C=C1CC[C@H](O)C/C1=C/C=C1\CCC[C@]2(C)[C@@H]([C@H](C)/C=C/[C@H](C)C(C)C)CC[C@@H]12 [Vitamin D2],-0.23,0.298,0.675,1.1
COc1ccc(-c2nc3cc(C4=NNC(=O)CC4C)ccc3[nH]2)cc1 (stereo not given) [Pimobendan (Vetmedin)],-3.55,-3.27,-3.24,-2.55
Nc1ccn([C@@H]2O[C@H](CO)[C@@H](O)C2(F)F)c(=O)n1 [Gemcitabine (Gemzar)],-9.74,-6.74,-7.69,-7.47
CCOc1ccccc1OC(c1ccccc1)C1CNCCO1 (stereo not given) [Reboxetine mesylate],0.529,-0.651,-0.943,-1.03
CC1(C)S[C@@H]2[C@H](NC(=O)[C@H](N)c3ccc(O)cc3)C(=O)N2[C@H]1C(=O)O [Amoxicillin sodium (Amox)],-0.471,0.414,-0.0146,0.273
Nc1ccc(S(=O)(=O)Nc2nccs2)cc1 [Sulfathiazole],0.158,0.909,0.229,0.131
CNC1CC(N)C(O)C(OC2OC(CO)C(O)C3OC4(OC(C(N)CO)C(O)C(O)C4O)OC23)C1O (stereo not given) [Hygromycin B],-0.837,-1.11,-0.462,0.0743
NC(=O)CC[C@H](N)C(=O)O [L-Glutamine],0.616,0.866,-0.175,0.174
NC[C@H]1O[C@H](O[C@H]2[C@H](O)[C@@H](O[C@H]3O[C@H](CO)[C@@H](O)[C@H](N)[C@H]3O)[C@H](N)C[C@@H]2N)[C@H](N)C[C@@H]1O [Tobramycin],-0.000115,0.0158,-0.181,-0.399
COc1c(N2C[C@@H]3CCCN[C@@H]3C2)c(F)cc2c(=O)c(C(=O)O)cn(C3CC3)c12 [Moxifloxacin hydrochloride],1.05,0.821,0.322,0.366
N=C(N)NC(=O)c1nc(Cl)c(N)nc1N [Amiloride hydrochloride (Midamor)],-0.212,-0.0101,-1.81,0.0298
CCCSc1ccc2[nH]c(NC(=O)OC)nc2c1 [Albendazole (Albenza)],-8.53,-5.02,-5.02,-5.11
NC12CC3CC(CC(C3)C1)C2 [Amantadine hydrochloride (Symmetrel)],0.662,0.362,0.265,0.525
CCCN(CCC)CCc1cccc2c1CC(=O)N2 [Ropinirole HCl],-0.00216,0.151,0.402,-0.299
CNC[C@H](O)[C@@H](O)[C@H](O)[C@H](O)CO [Meglumine],0.247,0.797,-0.0393,2.14
Cc1ccc(Nc2nccc(N(C)c3ccc4c(C)n(C)nc4c3)n2)cc1S(N)(=O)=O [Pazopanib],0.221,0.307,-0.35,-0.312
CC(C)C[C@H](NC(=O)[C@H](CCc1ccccc1)NC(=O)CN1CCOCC1)C(=O)N[C@@H](Cc1ccccc1)C(=O)N[C@@H](CC(C)C)C(=O)[C@@]1(C)CO1 [Carfilzomib (PR-171)],-8.18,-7.96,-7.31,-7.85
CN1CCC(OC(c2ccccc2)c2ccccc2)CC1 [Diphenylpyraline HCl],-0.496,0.0264,-1.77,-0.367
OC(CCN1CCCCC1)(c1ccccc1)c1ccccc1 [Pridinol Methanesulfonate],1.12,-0.266,0.123,1.2
CN1CCN2c3ccccc3Cc3ccccc3C2C1 (stereo not given) [Mianserin hydrochloride],1.3,0.586,0.0202,-0.494
Clc1ccc(C(Cn2ccnc2)OCc2ccsc2Cl)c(Cl)c1 (stereo not given) [Tioconazole],-1.62,-0.322,-1.63,-2.69
CCOC(=O)C(C)(C)Oc1ccc(Cl)cc1 [Clofibrate (Atromid-S)],0.152,0.157,-0.55,0.314
O=C(O)CCCC[C@@H]1SC[C@@H]2NC(=O)N[C@@H]21 [Biotin (Vitamin B7)],0.845,0.284,0.648,-0.0648
CC(C)N(CCC(C(N)=O)(c1ccccc1)c1ccccn1)C(C)C (stereo not given) [Disopyramide Phosphate],0.191,-0.161,0.379,0.284
COc1cc(C)c(/C=C/C(C)=C/C=C/C(C)=C/C(=O)O)c(C)c1C [Acitretin],1.16,0.656,-0.702,-1.44
